# Values joined by “and” are separate entries in the source; they are usually repeats but may differ in a detail not shown here. Identical values can stand only once. Screen size: about 150,000 compounds; about 540 (0.36%) showed an effect of 50% or more. The list shows a part of the results.
# Tested on: Plasmodium falciparum
# Test: Primary screen in NF54 nanoGlo assay, in single point, at 2uM, 72h; a lower Z score goes with more inhibition
# Assay type: functional, Erythrocyte
# Conditions: timepoint 72 hour
SMILES,% Inhibition [%],Z score,% Inhibition (2 µM),Z score (2 µM)
O=C(O)CCN(C(=O)CCc1ccccc1Cl)C1CCOCC1,-6,0.9,,
Cc1nnccc1NC(=O)N[C@H]1CCCc2ccccc2C1,-1,0.22,,
COc1cn(CC(=O)NCc2ccco2)c(CN2CCC(C)CC2)cc1=O,0,-0.03,,
CCN(C(=O)c1ccnn1C)c1cccnc1C,-9,1.25,,
N#Cc1cn(Cc2cc(-c3ccccc3)no2)c(=O)[nH]c1=O,-12,1.26,,
Cc1cc(C(=O)N[C@H](C#N)c2ccc(OCc3ccccc3)cc2)no1,-14,1.48,,
Cc1nc(CN(C)C(=O)Cc2coc3c(C)c(C)cc(C)c23)no1,4,-0.68,,
O=C(c1ccnc(-c2cc(F)cc(C(F)(F)F)c2)c1)N1CCOCC1,-19,1.67,,
CCc1nc(CN[C@H](c2ccc(F)cc2F)C(C)(C)C)n[nH]1,-14,2.24,,
CC1CN(Cc2ccccc2)CC(C)C1NC(=O)Cc1ccon1 (stereo not given),-5,0.55,,
NCCOc1cccc(CC(=O)NC2(c3cc(F)cc(F)c3)CC2)c1,14,-1.8,,
O=C(O)CCCNC(=O)c1cccc(-c2ccoc2)c1,-5,0.94,,
Clc1cnc(NC2(CN3CCCCC3)CC2)nc1,-6,0.73,,
Cc1nc(C)c(CC(=O)Nc2nc(C)c(-c3ccccn3)s2)c(=O)[nH]1,-7,1.34,,
CC(C)Cc1ccc(CN2C[C@@H]3CC[C@H](C2)C(=O)N3)s1,-7,1.21,,
CC(C)C1OCCC1CNc1ncnc(N)c1Cl (stereo not given),0,0.09,,
Cc1cc(C(=O)NCc2ccncc2)no1,43,-6.2,,
Cc1cc(C)c(NCc2ccc(N3N=C(c4ccccc4)C(C)(C)[C@H]3c3ccccc3)cc2)c(C)c1,1,-0.06,,
Cc1ccc(C(=O)N2CCN(S(=O)(=O)c3cccnc3)CC2)cc1,-2,0.33,,
COc1nscc1S(=O)(=O)Nc1cnn(CC(F)F)c1,-6,0.7,,
CC(C)Oc1ccc(-c2noc(Cc3nc(-c4ccc5c(c4)OCO5)cs3)n2)cc1,-7,0.79,,
Cn1cc(-c2csc(NC(=O)c3cccc(Cl)c3)n2)cn1,7,-1.37,,

SMILES,% Inhibition [%],Z score,% Inhibition (2 µM),Z score (2 µM)
Cc1ccc(C(=O)NC2CCN(c3ccccc3C(=O)N(C)C3CCCCC3)CC2)cc1,1,-0.21,,
Cc1ccc(OCC(=O)c2ccc3c(c2)N(Cc2ccc(C(=O)NCC4CC4)o2)C(=O)CO3)cc1C,3,-0.42,,
CCN=C(NCCc1csc(C)n1)NCc1ccc(OC)cc1,-14,1.44,,
C[C@H](NCCc1nc(C2CC2)cs1)c1nc2c(s1)CCC2,-14,1.28,,
CC(=O)N(CCC(=O)N1CCOC2CCCC21)Cc1ccccc1 (stereo not given),-4,0.45,,
CC(C)N(C(=O)C[n+]1ccc(C(=O)NCc2ccccc2)cc1)c1ccccc1,9,-0.77,,
Nc1nc(N2CCC(n3cc(C(=O)O)cn3)CC2)nc2ccccc12,-7,1.35,,
Cc1cc(Cl)ccc1CN[C@H](C)CCO,-3,0.4,,
Nc1ccc(-c2nc3ccc(F)cc3n2C2CC2)cc1,-13,1.71,,
CN(C)C[C@H]1CCN(C(=O)CCC2CCCC2)C[C@@H]1O,-9,1.13,,
CC(C)CC[C@@H](CCNC1CCN(C)CC1)c1ccc(Cl)cc1,63,-7.69,,
CCC(NC(=O)NCC(O)c1ccccc1F)c1c(C)nn(C)c1C (stereo not given),-19,2.18,,
O=S(=O)(Cc1ccccc1)NCCOc1ccc2c(c1)OCO2,-14,2.67,,
C#CCOc1cc([C@H]2CC(=O)Nc3c2ncn3-c2cccnc2)ccc1OC,,,-3% and -2%,0.45 and 0.29
Brc1cncc(NCCOCC2CC2)c1,-19,2.14,,
CC1(C)C2CN(C(=O)c3ccoc3)CC21 (stereo not given),-7,0.68,,
Cc1nc(-c2ccc(Cl)c(S(=O)(=O)N3CCC[C@H](C(=O)NCCc4ccccc4)C3)c2)no1,10,-1.33,,
CC1(C)CN(C(=O)c2ccc(S(C)(=O)=O)o2)c2ccccc2O1,2,-0.26,,
COCCN(CCOC)CC(=O)Nc1cccc(C(F)(F)F)c1,2,-0.21,,
O=C1N(Cc2cccnc2)CCC[C@@]12CCN(Cc1ccccc1F)C2,-9,0.8,,
COc1ccc(CCC(=O)N2CCCN(C(=O)C[C@H]3C[C@@H](C(C)=O)C3(C)C)CC2)cc1,12,-1.14,,
CCOC(=O)[C@H]1C[C@@H]2NCCCCCCNC(=O)[C@@H]2C1,-5,1.02,,

SMILES,% Inhibition [%],Z score,% Inhibition (2 µM),Z score (2 µM)
Cn1ccnc1[C@@]1(CNS(=O)(=O)c2cnc3ccc(F)cc3c2)NC(=O)NC1=O,-5,0.5,,
CC(=O)N[C@H]1CCCN(Cc2cccn2Cc2ccccc2C#N)C1,-13,2.21,,
COc1cccc(C2(NC(=O)c3cc(C)no3)CCOCC2)c1F,9,-1.17,,
CC(c1nc2cc(Cl)ccc2[nH]1)N(C)CC1CNC(=O)C1 (stereo not given),-8,0.88,,
CC[C@@]1(C)COCCN1C(=O)CCCc1ccc2c(c1)CC(=O)N2,-8,0.86,,
O=C(CCc1ccc2c(c1)OCO2)N1CCC[C@H](c2[nH]ncc2-c2ccc(F)c(F)c2)C1,-15,2.03,,
CC1(C)CC(NC(=O)C2CCN(S(=O)(=O)c3ccc(C(C)(C)C)cc3)CC2)CC(C)(C)N1,1,-0.16,,
CCc1cnc(NC(=O)c2ccoc2C2CC2)o1,-1,0.1,,
Cc1csc(-c2c[nH]c([C@H]3CC(=O)N(C4CCCC4)C3)n2)c1,1,-0.21,,
COc1ccc(-c2ccc3[nH]c(CO)nc3c2)cn1,-24,2.62,,
CNC(=O)C1CC2CCCCC2N1S(=O)(=O)c1ccc2c(c1)OCCO2 (stereo not given),4,-0.55,,
O=C(N[C@H](CO)CN1CCOCC1)c1cn2c(n1)CCC2,7,-0.98,,
Cc1nc(NC(=O)NCCn2ncnn2)sc1C,31,-4.22,,
Cc1nnc(CN(C)OCc2ccccc2)o1,-2,0.15,,
CS(=O)(=O)N1C2CCC1CC(NC(=O)Cn1cc(-c3ccc(F)cc3)cn1)C2 (stereo not given),-24,3.02,,
NC(=O)c1ccc(N2CC[C@H](OCCCc3ccccc3)C2)nn1,-5,0.96,,
CC(C)c1nc(CN(C)[C@@H](CN(C)C)c2ccccc2)co1,11,-1.44,,
CN1CCCC[C@@H](C(=O)NCc2nccs2)C1=O,4,-0.65,,
Cc1cc2nc(-c3c(C(=O)N4CCOCC4)nc4ccccn34)[nH]c2cc1C,-9,1.1,,
C=CCN(Cc1ccccc1OC)S(=O)(=O)N1CCCC1,-15,2.82,,
COc1ccc2c(C)c(C(=O)N3CCc4[nH]nc(C5CCC5)c4C3)oc2c1,-5,0.71,,
C#CCCC1(CCC(=O)N2CCOCC23CCC3)N=N1,-13,1.65,,

SMILES,% Inhibition [%],Z score,% Inhibition (2 µM),Z score (2 µM)
CC(C)c1ccc(NC(=O)c2ccc3c(c2)N(S(C)(=O)=O)CC3)cc1,0,0.02,,
Cc1cc(C)nc(-n2nc(C)c(CC(=O)Nc3ccccc3N3CCC(C(N)=O)CC3)c2C)n1,6,-0.79,,
CC(C)S(=O)(=O)N1CCC(c2nnc3n2CCN(C(=O)c2cscn2)C3)CC1,-5,0.78,,
CC1(C)Cc2cc(S(=O)(=O)Nc3cncc(N4CCCC4)n3)ccc2O1,-1,0.14,,
Cc1noc(C)c1CC(=O)N1CC2(C[C@H](N(C)Cc3ccccc3)CO2)C1,-16,2.49,,
O=C(NC1CC1)C1CCN(c2nc3ccc(-c4ccccc4)nc3s2)CC1,-11,1.22,,
O=C(NS(=O)(=O)CC1CCCCC1)C1CCC(C(F)(F)F)CC1 (stereo not given),-5,0.62,,
CCc1nc(-c2cc(NC(=O)Cc3cccc(F)c3)c(C)s2)no1,-1,0.07,,
O=S(=O)(NCCc1n[nH]c(-c2ccc(Cl)cc2)n1)c1ccc(C2CCCCC2)cc1,-8,1.42,,
CCCC(=O)N[C@H]1CCO[C@@H]1C1CCN(C(=O)OC(C)(C)C)CC1,0,0.08,,
C#CCNC(=O)CNS(=O)(=O)c1c(F)cccc1Cl,-12,1.69,,
CCN(CC)CCNC(=O)c1cnn(-c2nccc(-c3cccs3)n2)c1COC,-1,0.28,,
CC(NCC(=O)NCCNC(=O)CNC(C)c1ccc(F)c(F)c1)c1ccc(F)c(F)c1 (stereo not given),-13,1.29,,
CCS(=O)(=O)c1c(C(=O)c2ccccc2)c2ccc(C(N)=O)cn2c1S(=O)(=O)CC,-8,0.99,,
CC[C@H](C)C(=O)N(C)Cc1sccc1C,9,-1.29,,
C[C@H]1c2ccccc2CN1C(=O)c1csc(=O)[nH]1,-18,2.48,,
Cc1nn(C)c(C)c1CNc1cccc2nsnc12,0,0.03,,
O=C(Nc1cccc(Br)c1Cl)[C@@H]1CCCO1,5,-0.53,,
O=C(NCC1(O)Cc2ccccc2C1)C(=O)Nc1cccc(N2CCCC2=O)c1,5,-0.69,,

# Source: ChEMBL document CHEMBL4888484, “Replenishing the malaria drug discovery pipeline: Screening and hit evaluation of the MMV Hit Generation Library 1 (HGL1) against asexual blood stage Plasmodium falciparum ,using a nano luciferase reporter read-out” (2022)
